pIC50: −log10 of the molar value.
Tests used:
[1] = target: T1, Tyrosine-protein kinase JAK3 (Homo sapiens, UniProt P52333)
T1 sequence (P52333 whole entry): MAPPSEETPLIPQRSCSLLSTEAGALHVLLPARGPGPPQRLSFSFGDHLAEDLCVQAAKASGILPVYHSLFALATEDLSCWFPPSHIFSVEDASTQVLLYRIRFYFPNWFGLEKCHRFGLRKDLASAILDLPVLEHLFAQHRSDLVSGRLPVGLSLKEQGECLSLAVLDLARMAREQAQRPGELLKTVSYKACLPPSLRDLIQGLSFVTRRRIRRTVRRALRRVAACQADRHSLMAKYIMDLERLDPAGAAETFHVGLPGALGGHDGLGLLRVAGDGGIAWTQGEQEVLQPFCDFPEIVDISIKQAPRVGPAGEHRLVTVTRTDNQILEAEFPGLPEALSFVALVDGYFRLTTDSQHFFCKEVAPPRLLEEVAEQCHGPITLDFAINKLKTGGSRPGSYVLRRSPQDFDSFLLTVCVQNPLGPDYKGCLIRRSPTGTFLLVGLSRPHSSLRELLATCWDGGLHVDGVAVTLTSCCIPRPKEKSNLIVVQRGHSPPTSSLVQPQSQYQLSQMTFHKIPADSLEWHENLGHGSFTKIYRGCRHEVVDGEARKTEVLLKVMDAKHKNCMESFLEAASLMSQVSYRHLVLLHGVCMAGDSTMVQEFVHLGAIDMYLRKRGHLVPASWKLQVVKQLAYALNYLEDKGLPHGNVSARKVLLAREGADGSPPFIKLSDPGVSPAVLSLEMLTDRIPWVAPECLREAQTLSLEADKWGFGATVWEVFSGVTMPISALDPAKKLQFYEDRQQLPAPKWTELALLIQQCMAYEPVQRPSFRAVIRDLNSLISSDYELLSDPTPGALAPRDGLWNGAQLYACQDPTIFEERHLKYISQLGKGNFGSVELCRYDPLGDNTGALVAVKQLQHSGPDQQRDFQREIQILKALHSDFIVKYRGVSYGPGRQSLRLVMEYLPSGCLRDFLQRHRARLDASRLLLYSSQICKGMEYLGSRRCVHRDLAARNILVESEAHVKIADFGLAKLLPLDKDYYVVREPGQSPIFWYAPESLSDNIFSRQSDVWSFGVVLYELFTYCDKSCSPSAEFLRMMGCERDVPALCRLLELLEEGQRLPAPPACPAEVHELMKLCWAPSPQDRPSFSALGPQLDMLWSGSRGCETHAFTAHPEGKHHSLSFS

[2] = target: Tyrosine-protein kinase JAK2 (Homo sapiens, UniProt O60674)
Chain of Tyrosine-protein kinase JAK2 (O60674 whole entry): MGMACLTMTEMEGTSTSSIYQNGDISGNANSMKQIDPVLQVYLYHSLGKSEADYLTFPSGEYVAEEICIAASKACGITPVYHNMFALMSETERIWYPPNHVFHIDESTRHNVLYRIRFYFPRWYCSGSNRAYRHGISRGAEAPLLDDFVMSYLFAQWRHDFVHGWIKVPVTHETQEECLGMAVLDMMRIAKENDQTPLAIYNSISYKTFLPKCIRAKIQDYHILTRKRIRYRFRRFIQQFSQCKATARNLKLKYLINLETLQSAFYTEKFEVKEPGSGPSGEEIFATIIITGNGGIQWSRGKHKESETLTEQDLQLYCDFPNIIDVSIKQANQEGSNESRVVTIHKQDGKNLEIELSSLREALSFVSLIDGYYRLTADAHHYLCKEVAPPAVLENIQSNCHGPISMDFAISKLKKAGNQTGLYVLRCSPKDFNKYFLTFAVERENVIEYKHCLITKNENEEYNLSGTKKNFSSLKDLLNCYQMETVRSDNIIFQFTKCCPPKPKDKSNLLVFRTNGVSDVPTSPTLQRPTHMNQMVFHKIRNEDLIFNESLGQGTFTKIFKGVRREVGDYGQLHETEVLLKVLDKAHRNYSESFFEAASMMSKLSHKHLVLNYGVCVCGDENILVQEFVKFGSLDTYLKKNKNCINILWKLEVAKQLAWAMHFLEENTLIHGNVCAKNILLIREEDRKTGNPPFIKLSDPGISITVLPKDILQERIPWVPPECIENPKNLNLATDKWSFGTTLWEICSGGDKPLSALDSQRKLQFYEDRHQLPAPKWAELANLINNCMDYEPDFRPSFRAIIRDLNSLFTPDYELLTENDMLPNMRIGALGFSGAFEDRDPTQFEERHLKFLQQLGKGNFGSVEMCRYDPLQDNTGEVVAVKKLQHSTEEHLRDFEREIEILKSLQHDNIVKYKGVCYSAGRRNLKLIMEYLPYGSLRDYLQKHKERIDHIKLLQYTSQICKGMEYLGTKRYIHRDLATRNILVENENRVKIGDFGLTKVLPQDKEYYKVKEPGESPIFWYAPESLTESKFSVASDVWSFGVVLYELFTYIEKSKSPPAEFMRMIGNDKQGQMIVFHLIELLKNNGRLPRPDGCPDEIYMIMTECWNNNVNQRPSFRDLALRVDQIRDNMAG

pIC50 [1]	pIC50 [2]	SMILES
6.50	–	COCCn1cc(-c2nn(CC3CCN(C(=O)CC#N)CC3)c3ncnc(N)c23)cn1
< 6.00	–	CN(C)CC(=O)N1CCC(Cn2nc(-c3cnn(C)c3)c3c(N)ncnc32)CC1
7.72	6.09	C=CC(=O)N1CCCC(Cn2nc(-c3cnn(C)c3)c3c(N)ncnc32)C1 (centres undefined)
7.67	6.23	C=CC(=O)N1CCCC(n2nc(-c3cnn(CCOC)c3)c3c(N)ncnc32)C1 (centres undefined)
7.06	–	COCCn1cc(-c2nn(CC3CCCN(C(=O)CC#N)C3)c3ncnc(N)c23)cn1 (centres undefined)
6.10	–	COCCn1cc(-c2nn(CC3CCCN(C(=O)CN(C)C)C3)c3ncnc(N)c23)cn1 (centres undefined)
6.81	–	C=CC(=O)Nc1cccc(Cn2nc(-c3cnn(CCOC)c3)c3c(N)ncnc32)c1
< 6.00	–	Cn1cc(-c2nn(CC3CCN(C#N)CC3)c3ncnc(N)c23)cn1
6.84	6.70	COCCn1cc(-c2nn(C3CCCN(C#N)C3)c3ncnc(N)c23)cn1 (centres undefined)
7.25	7.11	Cn1cc(-c2nn(CC3CCCN(C(=O)CC#N)C3)c3ncnc(N)c23)cn1 (centres undefined)
7.49	6.23	Cn1cc(-c2nn(C3CCCN(C(=O)CC#N)C3)c3ncnc(N)c23)cn1 (centres undefined)
8.21	6.40	C=CC(=O)N1CCCC(n2nc(-c3cnn(C)c3)c3c(N)ncnc32)C1 (centres undefined)
6.56	–	Cn1cc(-c2nn(CC3CCN(C(=O)CC#N)CC3)c3ncnc(N)c23)cn1
8.00	6.30	C=CC(=O)N1CCC(n2nc(-c3cnn(C)c3)c3c(N)ncnc32)C1 (centres undefined)
6.94	6.77	Cn1cc(-c2nn(C3CCCN(C#N)C3)c3ncnc(N)c23)cn1 (centres undefined)
6.23	5.71	CN(C)CC(=O)N1CCCC(Cn2nc(-c3cnn(C)c3)c3c(N)ncnc32)C1 (centres undefined)
6.57	–	C=CC(=O)Nc1cccc(Cn2ncc3c(Nc4cnn(CCOC)c4)ncnc32)c1

pIC50 [1]	pIC50 [2]	SMILES
7.03	6.99	Cn1cc(-c2nn(C3CCN(C#N)CC3)c3ncnc(N)c23)cn1
6.72	–	Cn1cc(-c2nn(CC3CCCN(C#N)C3)c3ncnc(N)c23)cn1 (centres undefined)
6.84	5.85	COCCn1cc(-c2nn(CC3CCCN(C#N)C3)c3ncnc(N)c23)cn1 (centres undefined)
< 6.00	–	COCCn1cc(-c2nn(C3CCN(C(=O)CN(C)C)CC3)c3ncnc(N)c23)cn1
< 6.00	–	COCCn1cc(-c2nn(CC3CCN(C(=O)CN(C)C)CC3)c3ncnc(N)c23)cn1
< 6.00	–	COCCn1cc(-c2nn(CC3CCN(C#N)CC3)c3ncnc(N)c23)cn1
6.71	6.33	C=CC(=O)N1CCC(Cn2nc(-c3cnn(C)c3)c3c(N)ncnc32)CC1
< 6.00	< 6.00	CN(C)CC(=O)N1CCC(n2nc(-c3cnn(C)c3)c3c(N)ncnc32)CC1
7.24	6.16	COCCn1cc(-c2nn(C3CCCN(C(=O)CC#N)C3)c3ncnc(N)c23)cn1 (centres undefined)
7.81	6.29	C=CC(=O)N1CCC(n2nc(-c3cnn(CCOC)c3)c3c(N)ncnc32)C1 (centres undefined)
6.12	–	COCCn1cc(-c2nn(C3CCCN(C(=O)CN(C)C)C3)c3ncnc(N)c23)cn1 (centres undefined)
6.23	–	CN(C)CC(=O)N1CCCC(n2nc(-c3cnn(C)c3)c3c(N)ncnc32)C1 (centres undefined)
6.43	6.44	COCCn1cc(-c2nn(C3CCN(C(=O)CC#N)CC3)c3ncnc(N)c23)cn1
6.49	6.30	C=CC(=O)N1CCC(Cn2nc(-c3cnn(CCOC)c3)c3c(N)ncnc32)CC1
7.44	5.85	C=CC(=O)N1CCCC(Cn2nc(-c3cnn(CCOC)c3)c3c(N)ncnc32)C1 (centres undefined)
6.40	6.55	Cn1cc(-c2nn(C3CCN(C(=O)CC#N)CC3)c3ncnc(N)c23)cn1
6.91	6.83	COCCn1cc(-c2nn(C3CCN(C#N)CC3)c3ncnc(N)c23)cn1
